Experimental data published in the RNAGym collection of RNA variant scans (doi:10.7554/elife.90254).
The source gives no read counts; variants with many changes may rest on few reads.

B1: OR4K15 (parent)
chain: GUUAACGGUCAUAGGCCAUGGAAACUAGGAGCACCAUUUCGCUGCCAGUGAAGAAAUGAACAAAGAAAAUCUGGGCCAGGCAGGCAUCAAAAGAAAUAGUCUUGCGCUCAACCAGAAAGUCUGUAAUCAUUUUAAGGGUA

Variants of: B1
Experiment: self-cleavage, relative activity (ratio to wild type); higher = more cleavage; in vitro, sequencing; the parent is a self-cleaving ribozyme

Which self-cleavage does the source give for U9A A82U A98G U127C here?
Its self-cleavage is 0.03.

With U9C U26A U57A A66C A114U U120A as the variant, how does the self-cleavage read?
The self-cleavage was 0.05.

With U9C A22G A98U as the variant, how does the self-cleavage read?
The self-cleavage was 1.95.

Which self-cleavage does the source give for U9C A23G A51G A55G U100C C113A here?
Its self-cleavage is 0.02.

For U9A A47G C113U U127C, which self-cleavage is on record?
The self-cleavage was 0.01.

With U9C A11U C101U as the variant, how does the self-cleavage read?
The self-cleavage was 0.36.

With G8U U49C A67G U70A A89G as the variant, how does the self-cleavage read?
Its self-cleavage is 2.03.

For U9A G28A A64G A78U U131C, which self-cleavage is on record?
The self-cleavage was 0.07.

For U9C U108C A134G A135G, which self-cleavage is on record?
Its self-cleavage is 0.01.

For U9A A22G U39C A68G A129G U132C, which self-cleavage is on record?
The self-cleavage was 1.22.

With U9A A90G A117G as the variant, how does the self-cleavage read?
The self-cleavage was 0.47.

Which self-cleavage does the source give for U9A A11U A22C U108A here?
The self-cleavage was 0.05.

With U9C C16U A129G as the variant, how does the self-cleavage read?
The self-cleavage was 1.36.

Which self-cleavage does the source give for U9C A55G A62G U72C here?
The self-cleavage was 0.5.

With U9C A36U U70C as the variant, how does the self-cleavage read?
The self-cleavage was 0.19.

With G8A A63G A95U U103C A116G A129C as the variant, how does the self-cleavage read?
Its self-cleavage is 0.32.

Which self-cleavage does the source give for U9C A30U A69G here?
The self-cleavage was 1.63.

With U9C A11G U49A as the variant, how does the self-cleavage read?
The self-cleavage was 0.84.

Which self-cleavage does the source give for U9C A30G A96G here?
The self-cleavage was 1.38.

For U9A G41A A86G A89U C105U A118G, which self-cleavage is on record?
Its self-cleavage is 0.06.

For U9A U87C A118C C128U, which self-cleavage is on record?
The self-cleavage was 0.34.

With U9C C113U U130C as the variant, how does the self-cleavage read?
Its self-cleavage is 0.

For U9C G80U U127A U130C, which self-cleavage is on record?
The self-cleavage was 0.16.

Which self-cleavage does the source give for U9C A90G U97C here?
Its self-cleavage is 1.23.

Which self-cleavage does the source give for U9C A22U A117G here?
The self-cleavage was 2.25.

With U9C U38C A47G as the variant, how does the self-cleavage read?
The self-cleavage was 1.76.

For U9A U87C A111G, which self-cleavage is on record?
Its self-cleavage is 0.04.

For U9C A22G C88U U132C, which self-cleavage is on record?
Its self-cleavage is 1.05.

For U9C A23G A90G A114U, which self-cleavage is on record?
Its self-cleavage is 0.13.

With U9C U57G U139A as the variant, how does the self-cleavage read?
The self-cleavage was 1.31.

With U9C A91G A94G as the variant, how does the self-cleavage read?
Its self-cleavage is 0.66.

Which self-cleavage does the source give for G8A A54G U120C A129G here?
Its self-cleavage is 0.4.

For U9C A18U A23G A126G, which self-cleavage is on record?
Its self-cleavage is 0.61.

With U9C A18G A86G A129G as the variant, how does the self-cleavage read?
Its self-cleavage is 2.08.

Which self-cleavage does the source give for U9C A52U A54C here?
The self-cleavage was 0.94.

For U9A A22U A60G C76U U122A, which self-cleavage is on record?
Its self-cleavage is 0.04.

With U9C G14A A52G A110G A117G as the variant, how does the self-cleavage read?
Its self-cleavage is 0.08.

Which self-cleavage does the source give for U9C A23G A94U A117G here?
The self-cleavage was 1.69.

For U9C U19C A30G A54G U57G A126G, which self-cleavage is on record?
Its self-cleavage is 0.68.

With U9C A18G U37C U120A U132C as the variant, how does the self-cleavage read?
Its self-cleavage is 1.8.

For U9C U12A G74C A96G, which self-cleavage is on record?
The self-cleavage was 0.53.

For U9C U43C U49A A63U A90C A98U, which self-cleavage is on record?
Its self-cleavage is 1.56.

Which self-cleavage does the source give for U9C A66U A111G here?
Its self-cleavage is 0.06.

With U9C U49G U108C as the variant, how does the self-cleavage read?
The self-cleavage was 0.03.

For U9A A67G G79A A126G, which self-cleavage is on record?
The self-cleavage was 0.04.

For U9C U38C A82G U127C U130A, which self-cleavage is on record?
Its self-cleavage is 0.52.

Which self-cleavage does the source give for G7U U57C U108C A117G here?
Its self-cleavage is 0.02.

With U9C U26A U131C as the variant, how does the self-cleavage read?
The self-cleavage was 0.32.

For U9C U19A A55G A67G, which self-cleavage is on record?
Its self-cleavage is 0.29.

For U9A G80A A116G, which self-cleavage is on record?
The self-cleavage was 0.11.

With U9C A27G U122G as the variant, how does the self-cleavage read?
The self-cleavage was 2.06.

With U9A A92U A111G as the variant, how does the self-cleavage read?
Its self-cleavage is 0.05.

Which self-cleavage does the source give for U9C U57C A114U A116G here?
Its self-cleavage is 0.01.

With U9C A60G U102C as the variant, how does the self-cleavage read?
Its self-cleavage is 1.74.

Which self-cleavage does the source give for U9A U38C A52G U133C here?
Its self-cleavage is 1.73.

For U9C U100C U124C, which self-cleavage is on record?
Its self-cleavage is 1.75.

For G8A A24C A92G, which self-cleavage is on record?
Its self-cleavage is 1.42.

Which self-cleavage does the source give for U9A U19C A67G U103C U122C here?
The self-cleavage was 0.14.

For U9C A22G C42A, which self-cleavage is on record?
The self-cleavage was 2.07.

For U9C A11U A36C, which self-cleavage is on record?
The self-cleavage was 1.1.

With U9A U97G A110G as the variant, how does the self-cleavage read?
Its self-cleavage is 0.08.

Which self-cleavage does the source give for U9C A36G A78G A89C here?
The self-cleavage was 0.57.

With U9C G29U A59G C109U as the variant, how does the self-cleavage read?
Its self-cleavage is 0.43.

Which self-cleavage does the source give for U9C A47U U49C here?
The self-cleavage was 1.17.

With U9C A68G A92G U132C A140G as the variant, how does the self-cleavage read?
The self-cleavage was 1.79.

Which self-cleavage does the source give for U9C U19C U72A A78G A89G here?
Its self-cleavage is 0.33.

Which self-cleavage does the source give for U9C U37C A90G here?
The self-cleavage was 1.8.

For U9C U39C U87C A111G G136A, which self-cleavage is on record?
The self-cleavage was 0.03.

With U9C A11U A135G as the variant, how does the self-cleavage read?
The self-cleavage was 1.29.

With U9C A47U C88G A140G as the variant, how does the self-cleavage read?
Its self-cleavage is 1.11.

With U9C U43C A64G C88G as the variant, how does the self-cleavage read?
The self-cleavage was 1.18.

With U9A A51G A52U U72A A117G as the variant, how does the self-cleavage read?
The self-cleavage was 0.45.

For U9C A82G C107U U120C, which self-cleavage is on record?
Its self-cleavage is 0.01.

For G7U U26C A36G A56G U72A, which self-cleavage is on record?
The self-cleavage was 0.21.

With U9C A91U A129G as the variant, how does the self-cleavage read?
Its self-cleavage is 1.6.

For U9C A54G U97C, which self-cleavage is on record?
Its self-cleavage is 1.33.

Which self-cleavage does the source give for U9C U38C A64G here?
Its self-cleavage is 1.04.

For U9A C45G A90U, which self-cleavage is on record?
Its self-cleavage is 1.07.

With U9A U37C A126G as the variant, how does the self-cleavage read?
Its self-cleavage is 0.47.

For U9A U38C A78U A82G, which self-cleavage is on record?
The self-cleavage was 0.07.

With U9C A116G A126G as the variant, how does the self-cleavage read?
The self-cleavage was 1.08.

With U9A U19C A55G U139C as the variant, how does the self-cleavage read?
The self-cleavage was 1.25.

For U9A A60G A95G U97C, which self-cleavage is on record?
Its self-cleavage is 0.52.
